Measured values from PubChem BioAssay AID463173 (ICCB-Longwood Screening Facility, Harvard Medical School, 2010).
The campaign covered roughly 52,000 compounds. About 4,300 (8.3%) were called active. Cut-off read from the data, not from the text of the source: active = survival mostly below about 52% (no sharp cut-off); inactive = mostly above about 56%. The list shows a part of the results.

Test system: DeltatarO mutant
Experiment: growth inhibition of S. aureus wild type versus tarO mutant, primary screen, teichoic acid synthesis inhibitors, RN4220, OD600 (AID 463173)
Details: OD600, 18 h, stronger effect = lower value, screened at 18.75 µg/mL (by protocol)

Row | SMILES | survival
1 | COc1ccc(OC)c(NC(=O)CC(=O)Nc2ccc3nc4n(c(=O)c3c2)CCCCC4)c1 | inactive: 69%
2 | Cc1nc(SCC(=O)Nc2ccc(C(=O)O)cc2)n[nH]1 | inactive: 92%
3 | Cc1cc(C)c(OCCOCCn2c(-c3ccc(Cl)cc3)nc3ccccc3c2=O)c(C)c1 | active: 43%
4 | Cc1ccc(C2CCN(C(=O)c3cnn(-c4ccc(C)c(C)c4)c3C3CCN(C(=O)OC(C)(C)C)CC3)C2)cc1 (stereo unspecified) | inactive: 90%
5 | N#Cc1cc(-c2ccccc2C(F)(F)F)no1 | inactive: 83%
6 | Cc1cccc(NC(=O)CCS(=O)(=O)c2cc(Br)cc3c2N(C(=O)C2CC2)CC3)c1 | inactive: 111%
7 | Cc1ccc(CNC(=O)CC2Oc3ccc(Cl)cc3NC2=O)cc1 (stereo unspecified) | inactive: 81%
8 | Cc1ccc(CN(Cc2ccco2)C(=O)COc2ccc(C)c(C)c2)cc1 | inactive: 68%
9 | CCOc1ccc(NS(=O)(=O)c2ccc3c4c(cccc24)C(=O)N3)cc1 | inactive: 83%
10 | CC(C)(C)c1ccc(C(=O)NCC(c2ccc(Cl)cc2)N2CCOCC2)cc1 (stereo unspecified) | inactive: 86%
11 | CCc1ccc(S(=O)(=O)Nc2cccc(-c3ccc(N4CCOCC4)nn3)c2)cc1 | inactive: 76%
12 | COc1ccc(OC)c(S(=O)(=O)Nc2cccc(-c3ccc(N4CCCCC4)nn3)c2)c1 | inactive: 83%
13 | Cn1ncc(Cl)c1C(=O)O | inactive: 94%
14 | Cc1ccc(C)c(N2CCN(C(=O)CSCc3ccccc3Cl)CC2)c1 | inactive: 115%
15 | COc1cccc(NC(=O)CC2Nc3cc(C)c(C)cc3NC2=O)c1 (stereo unspecified) | inactive: 89%
16 | Cc1ccc(CNC(=O)c2ccc3nc(SCc4ccc(F)cc4)[nH]c3c2)cc1 | inactive: 72%
17 | COc1cccc(-c2nc(SCC(=O)NC3CCCC3)c(-c3ccc(C)cc3)[nH]2)c1 | inactive: 107%
18 | CC1=C(c2ccc(C(C)C)cc2)S(=O)(=O)N=C1N1CCC(C(=O)NCCc2ccco2)CC1 | active: 6%
19 | CN(N)C1=NS(=O)(=O)c2ccccc21 | inactive: 67%
20 | CCN(CC)C(=O)CSc1nc(-c2ccc(C)cc2)nc2c1Cc1c(CO)cnc(C)c1O2 | active: 39%
21 | COc1ccc(N2CC(NC(=O)c3ccc(S(=O)(=O)N4CCCCC4)cc3)CC2=O)cc1 (stereo unspecified) | inactive: 83%
22 | CCOc1ccc(CNC(=O)c2ccc3c(c2)nc2n3CCOC2)cc1OC | active: 6%
23 | CCc1cccc(NC(=O)C(Cc2ccccc2)n2cccc2)c1 (stereo unspecified) | active: 18%
24 | CC(C)(C)c1ccc(CSc2n[nH]c(=O)[nH]c2=O)cc1 | inactive: 98%
25 | CC(C)CC(=O)N(c1nnc(-c2cccnc2)s1)C1CCCC1 | inactive: 101%
26 | CC1=C(C(=O)Nc2ccc(F)cc2F)C2(CCN(C(C)C)CC2)OC1=O | inactive: 49%
